From the supplement of paper PMC10338343
± gives the standard deviation. In all, about 5,500 sequences were measured (“pre-steady-state target cleavage rate”: median about 0.1, highest 2% from about 0.64 on). The list shows a part of the results, in another mix than the full data.

System: MIWI (PIWIL1) piRISC loaded with piRNA #2 (30 nt)
Experiment: pre-steady-state target cleavage rate (min^-1); MIWI and MILI are mouse PIWI proteins and EfPiwi is from a freshwater sponge; tags in brackets are library labels; higher = faster piRNA-guided slicing of the target
Details: guide: piRNA #2 5'p-UUAGGUAACCCAGUAGAUCCAGAGGAAUUC; auxiliary factor: 500 nM mouse GTSF1
Method in brief: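 The pre-steady-state cleavage rate was derived from a burst-and-steady-state fit of Cleave-'n-Seq data. For these assays, 1 nM active affinity-purified piRISC loaded with a single synthetic guide was mixed with […] a transcribed, DNA-blocked target RNA library in HEPES–potassium acetate buffer at 33 °C, with or without 500 nM GTSF1 partner protein, for 0–8 or 0–960 min. Sequencing counts of uncleaved targets were normalised to depth and to weakly complementary targets, and k3 was capped at 0.0001 min^-1 after three trials were pooled.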

Sequence | pre-steady-state target cleavage rate
GAAUUCCUCUGGAACUACUGGGAUACCUAA | 0.18 ± 0.032
GAAUUCCUCUGGAUCUACUGGGUUAACUAA | 0.674 ± 0.059
CUUAAGGUCUGGAUCUACUGGGUUCCCUAA | 0.107 ± 0.02
CUUAACCUCUGGAACUACUGGGUUACCUUA | 0.205 ± 0.024
CUAUUCCUCUGGAUCUACUGGGUUAGCUUA | 0.169 ± 0.037
CUUAUGCUCUGGAUCUACUCGGUUACCUAA | 0.0442 ± 0.0085
CAAUUCCUGUCGAUCUACUGGGUUACCUAA | 0.564 ± 0.053
CAAUUCCUCACGAUCUACUGGGUUACCUAA | 0.784 ± 0.05
CUUAAGGAGUGGAUCUACUCGGUUACCUAA | 0.0154 ± 0.011
CUUAAGGACUGGCAUCUACUGGGUUACCUAA | 0.069 ± 0.017
CUUAUCCUCUGGAUCUACUGGGCUACCUAA | 0.136 ± 0.025
CUUAUCCUGUGGAUCUUCUGGGUUACCUAA | 0.226 ± 0.054
CUUUUGCUCUGGAUCUACUGGGUUACCUUA | 0.111 ± 0.021
CUUUUCCUCUGGAUCUACUGGGUUAACUAA | 0.396 ± 0.069
CUAUUCCUCUGGAUCUACUGGCGUUACCUAA | 0.005 ± 0.0032
CUUAUCCUCUGGAUCUAGUGGGUAACCUAA | 0.0406 ± 0.0091
CUUAAGGAGACGUUCUACUGGGAUACCUAA | < 0.0001
CUUAAGGAGUGGAUCUACUGGGUUACUCUAA | 0.0304 ± 0.0093
CUUAAGGAGUGGAUCUAGUGCGUUACCUAA | 0.00413 ± 0.0024
GAAUUCCACUGGAUCUACAGGGUUACCUAA | 0.407 ± 0.026
CUUAAGGAGACCUAGAUGACGGUUAACCUAA | < 0.0001
CUUAUGCUCUGGAUGUACUGGGUUACCUAA | 0.244 ± 0.02
CUUAUCCUCUGGAUCUACUGGGUUAGCUUA | 0.252 ± 0.06
CUUUUCGUCUGGAUGUACUGGGUUACCUAA | 0.0411 ± 0.024

Sequence | pre-steady-state target cleavage rate
CUUUUCCACUGGAUCUACUGCGUUACCUAA | 0.581 ± 0.057
CAAUUCCUCUGGAUGUACUGGGUUACCAAA | 0.466 ± 0.062
CUUUUCCUCUGGAACUACUGGGAUACCUAA | 0.0888 ± 0.018
CUUAAGCUCUGGUUCUACAGGGUUACCUAA | 0.22 ± 0.018
CUUAAGCUCUGGAUCUAUUGGGUUACCUAA | 0.0482 ± 0.0067
GAAUUCCUCUGGAUCUACUCGGAUACCUAA | 0.0217 ± 0.0077
CUAUUCCUCUGGAUCUACUGGGUUUGGAUA [g7:g28:cont:t1A] | 0.00737 ± 0.0041
CUUAACCUCUGGAUCUACAGGGUUAGCUAA | 0.0376 ± 0.0069
CUUAAGCUGUGGAUCUACUGGGUUACCAAA | 0.0319 ± 0.022
CUUAUCCUCUGGAUCUACUGGGAUACGUAA | 0.241 ± 0.037
CUUAAGGUCUGGAUCUUCUGGGUUACCUAA | 0.226 ± 0.036
CUAUUCCUCUGGAUCUACUGGGUUACCUGAA | 0.365 ± 0.12
CAAUUCCUCUGGAUCUAAUGGGUUACCUAA | 0.246 ± 0.032
CUUAAGGUGUGGAUCUACAGGGUUACCUAA | 0.0388 ± 0.0057
CUUAAGGUCUGGAUCUACUGGGUUACGUUA | 0.149 ± 0.025
CAAUUCCUCAGGAUCUAGUGGGUUACCUAA | 0.205 ± 0.024
CUUAACCUCUGGAUCUACUGGGAUACCUAA | 0.168 ± 0.024
CUUUUCCUCUGGAUCUACUCGCUUACCUAA | 0.00487 ± 0.0032
CUUAUGCUCUGGAACUACUGGGUUACCUAA | 0.262 ± 0.029
CUUAACCUCUGGAUCAACUGGGUUACCUUA | 0.187 ± 0.023
CUUUACCUCUGGAUGUACUGGGUUACCUAA | 0.518 ± 0.034
CUUAACCUCUGGAUCUACUGGGUUUACCUAA | 0.221 ± 0.029
CUUAAGCUCUGGAUCUUCUCGGUUACCUAA | 0.0206 ± 0.0076
GAAAUCCUCUGGAUCUACUGGGUUAGCUAA | 0.509 ± 0.064

Sequence | pre-steady-state target cleavage rate
CUUAAGCUCUGGUUCUACUGGGUUACCAAA | 0.11 ± 0.02
CUUAAGGAGUGGAUCUACUGGGUUACCUAC [g2:g21:cont:t1C] | 0.0825 ± 0.021
CUUUUCCUCUGGAUCAACUGGCUUACCUAA | 0.0733 ± 0.012
CUUUUCCUCUGGAACUACUGGGUAACCUAA | 0.19 ± 0.029
CUUUUCCACUGGAUCUACUGGGUUACCAAA | 0.303 ± 0.037
CUUAACGUCUGGAUCUACUGGGUUACGUAA | 0.518 ± 0.052
CUUAACCUCUGGAUCUACUGGGUUAGGAAA | 0.0155 ± 0.0049
CUUUUCCUGUGGAUCUACUGGGUUAGCUAA | 0.104 ± 0.023
CUAUUCCUCUGGCAUCUACUGGGUUACCUAA | 0.399 ± 0.1
CUUAACCUCUGGAUCUACUGGGUUACGUUA | 0.292 ± 0.032
CUAUUCCUCUGGAUCUUCUGGGUUACCUUA | 0.313 ± 0.054
CUUAACCUCUGGAUCUUCUGGGUUACCUAA | 0.228 ± 0.028
CUUAAGGAGACCUAGAUGUGGGUUACACUAA | < 0.0001
GAAUUCCUCUCGAUCUACUGCGUUACCUAA | 0.691 ± 0.063
CUAUUCCACUGGAUGUACUGGGUUACCUAA | 0.396 ± 0.036
CUUAAGGAGAGGAUCUACUGGGUUACCCAA | 0.0246 ± 0.0055
CUUUUCCUCUGGAUCUACUGGGUAACGUAA | 0.232 ± 0.036
CAAUCCCUCUGGAUCUACUGGGUUACCUAA | 0.424 ± 0.054
CUUAACCACAGGAUCUACUGGGUUACCUAA | 0.146 ± 0.028
CUUAAGGAGACCUAGUACUGGGAAACCUAA | < 0.0001
CUUAAGGAGUAGGAUCUACUGGGUUACCUAA | 0.0101 ± 0.0048
CUUAAGCUCUGGAUCUUCUGGGUUUCCUAA | 0.0285 ± 0.0062
CAUUCCUCUGGAUCUACUGGGUUACCUAA | 0.502 ± 0.064
CUAUUCCUCUGGAGCUACUGGGUUACCUAA | 0.395 ± 0.028
